Reference: the supplement of paper PMC10126150
Values marked as one replicate rest on one cluster of the flow cell; about a third of the high ones do not repeat.

Columns and labels:
[1] = tested on: ATP; experiment: switch fluorescence ratio, 500 uM ATP over buffer (Cy3 cluster intensity, sum of 5 cycles each) (fold (ratio)); higher = stronger signal-on switching upon ATP binding; conditions: aptamer strand: ATP DNA aptamer (quencher-CACCTGGGGGAGTATTGCGGAGGAAGG + anchor), 100 nM annealed; ATP concentration: 500 uM; one replicate;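 also: ATP exposure 15 min at 22 °C before imaging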
Method in brief: (§1)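 For every switch-domain sequence, the fluorescence ratio is the mean of per-cluster values, each being summed target-cycle Cy3 intensity over summed buffer-cycle Cy3 intensity. Clusters outside 100-1000 RFU were excluded. On a modified Illumina MiSeq flow-cell, the Cy3-labelled switching-strand clusters were annealed to 100 nM quencher-labelled ATP aptamer, imaged in selection buffer and then after 15 min with 500 uM ATP at 22 °C. Five such cycles were run, with NaOH stripping and re-annealing between them.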

[2] = tested on: ATP; experiment: switch fluorescence ratio, 500 uM ATP over buffer (Cy3 cluster intensity, sum of 5 cycles each) (fold (ratio)); higher = stronger signal-on switching upon ATP binding; sequences stand for … in TCGTCGGCAGCGTCAGATGTGTATAAGAGACAGTTTTTTTTTTTTTTTTTTTTTTTTT…TC; conditions: aptamer strand: ATP DNA aptamer (quencher-CACCTGGGGGAGTATTGCGGAGGAAGG + anchor), 100 nM annealed; ATP concentration: 500 uM; one replicate;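 also: ATP exposure 15 min at 22 °C before imaging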
Method in brief: as §1

Sequence	switch fluorescence ratio [1]	switch fluorescence ratio [2]
TCGTCGGCAGCGTCAGATGTGTATAAGAGACAGTTTTTTTTTTTTTTTTTTTTTTTTTTATC	1.01	
TTTTTGCGGG		0.962
TTTTTGTCTC		1
TTTTTTAACC		1.02
